From publication PMC4336329 (PLoS ONE, 2015)
Among all 310,000 compounds or so, about 2,200 (0.71%) showed an effect of 50% or more. Effects have a minus sign here. The list shows a part of the results.

target: human ether-à-go-go-related gene (hERG) potassium channel (human, UniProt Q12809); assay: primary screen, population patch clamp on CHO cells stably expressing hERG
Sequence (Q12809 whole entry, looked up): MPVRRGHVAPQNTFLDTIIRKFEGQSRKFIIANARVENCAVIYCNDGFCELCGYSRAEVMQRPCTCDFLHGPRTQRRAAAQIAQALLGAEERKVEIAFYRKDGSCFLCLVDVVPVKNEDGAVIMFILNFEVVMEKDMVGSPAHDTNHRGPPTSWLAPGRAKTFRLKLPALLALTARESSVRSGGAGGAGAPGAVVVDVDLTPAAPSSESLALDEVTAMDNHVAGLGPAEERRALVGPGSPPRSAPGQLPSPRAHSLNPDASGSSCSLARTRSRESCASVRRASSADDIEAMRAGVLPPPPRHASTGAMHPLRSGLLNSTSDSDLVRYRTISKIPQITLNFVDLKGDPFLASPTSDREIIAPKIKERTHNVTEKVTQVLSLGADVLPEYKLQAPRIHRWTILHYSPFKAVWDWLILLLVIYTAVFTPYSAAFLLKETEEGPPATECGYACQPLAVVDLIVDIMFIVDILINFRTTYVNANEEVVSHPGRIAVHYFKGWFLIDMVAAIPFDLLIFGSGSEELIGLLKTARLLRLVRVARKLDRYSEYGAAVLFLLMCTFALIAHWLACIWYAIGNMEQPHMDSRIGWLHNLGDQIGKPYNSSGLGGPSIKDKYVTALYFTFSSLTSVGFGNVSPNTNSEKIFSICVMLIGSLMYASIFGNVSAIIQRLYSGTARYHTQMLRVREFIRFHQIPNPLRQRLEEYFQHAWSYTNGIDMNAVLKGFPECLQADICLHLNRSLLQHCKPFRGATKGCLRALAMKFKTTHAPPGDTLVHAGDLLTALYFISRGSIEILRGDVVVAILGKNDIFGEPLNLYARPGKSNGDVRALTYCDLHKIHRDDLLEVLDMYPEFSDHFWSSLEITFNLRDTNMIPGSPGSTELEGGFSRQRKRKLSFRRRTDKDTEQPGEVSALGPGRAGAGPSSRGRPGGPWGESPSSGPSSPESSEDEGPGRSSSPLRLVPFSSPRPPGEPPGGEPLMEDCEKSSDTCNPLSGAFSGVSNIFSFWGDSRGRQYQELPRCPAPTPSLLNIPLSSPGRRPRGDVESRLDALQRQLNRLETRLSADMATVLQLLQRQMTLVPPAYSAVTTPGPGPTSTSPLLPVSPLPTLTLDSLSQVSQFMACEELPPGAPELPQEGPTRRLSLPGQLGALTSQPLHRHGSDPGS

Compound	hERG current change (%, negative = inhibition) at 1uM [%]
CN(C)C(=O)N1CCC(C(=O)NCc2ccccc2Cl)CC1	7.64
COc1ccc(-c2csc(N(C)C(=O)c3cccs3)n2)cc1	9.66
CCN(CC)c1ccc2cc(C(=O)NCc3ccc(F)cc3)c(=N)oc2c1	11.9
Cc1cc(NC(=O)C23CCC(C)(C(=O)O2)C3(C)C)no1 (centres unmarked)	7.48
Cc1ccc2cc(C(c3nnnn3C3CCCC3)N(Cc3ccco3)Cc3cccs3)c(=O)[nH]c2c1 (centres unmarked)	3.22
O=C(c1ccccc1)c1ccc(C(=O)N2CCN(c3ccccc3)CC2)cc1	-1.57
CCOc1ccccc1OCCC(=O)N1CCN(S(=O)(=O)c2ccccc2[N+](=O)[O-])CC1	4.28
Cc1ccc(-n2c(=O)[nH]c3c(C(N)=O)nc(CC(C)C)nc32)cc1	5.48
Cc1c(Cl)ccc2c(C(=O)O)cc(-c3ccccc3)nc12	6.22
CCOc1cc(N2CCOCC2)c(OCC)cc1NC(=O)Cc1ccccc1	-0.537
Cc1nc(Cl)sc1C(=O)O	3.19
CC(=O)O[C@H](CC(=O)O)C[N+](C)(C)C.[Cl-]	11.2
O=C(N=C1SC2CS(=O)(=O)CC2N1c1ccc(Cl)cc1Cl)C1CC1 (centres unmarked)	-0.584
COc1ccc(Cl)cc1NC(=S)NNC(=O)C1(C)CC1(Cl)Cl (centres unmarked)	1.4
COC(=O)Cc1ccc(NC(=S)NCC(C)C)cc1	-0.549
CCOc1ccc(CN2CCNC(=O)C2CC(=O)NCCC2=CCCCC2)cc1 (centres unmarked)	20.9
CC(C)C1Cc2ccccc2-c2[nH]c(=S)[nH]c(=O)c21 (centres unmarked)	9.71
CC(=O)Nc1ccc(C(=O)NNS(=O)(=O)c2ccc(C)cc2)cc1	8.38
Cc1ccc(Nc2nc(=O)c3cccnc3s2)c(Br)c1	8.22
CCc1cc2ccccc2nc1SCC(=O)NC1CCCC1	12.1
Cc1ccc(CNc2ccc3c(c2)ncn3C(C)(C)C)cc1	-18.2
CCOP(C)(=O)C1(C(=O)OCc2ccccc2)CC1 (centres unmarked)	15.6
O=C(c1cc2cc(Br)ccc2oc1=O)N1CCN(c2ccccn2)CC1	-5.91
CCOC(=O)C1CCN(C(=O)c2cccnc2Oc2ccc(Cl)cc2)CC1	-8.77
CC(C)(C)C(=O)NC(Nc1cccc2cccnc12)C(Cl)(Cl)Cl (centres unmarked)	0.891
COC(=O)C(C)Sc1nnc(Cc2cc(=O)[nH]c(=O)[nH]2)n1-c1ccc(Cl)cc1 (centres unmarked)	17.2
